Measured values as given in US20120189706A1, “Macrocystis Pyrifera Derived Health and Wellness Products and Methods of Using the Same” (Knocean Sciences, Inc., priority 2009, published 2012).

Test system: Dengue Virus Type 2 strain New Guinea C
Assay: Dengue Virus Cytoprotection assay
Assay type: cell-based
Conditions: Vero C1008, 168 h, DENV2 Strain New Guinea C, Vero E6 cells, 7 days
Protocol: For each assay, a pre-titered aliquot of virus is removed from the freezer (−80° C.) and allowed to thaw slowly to room temperature in a biological safety cabinet. The virus is re-suspended and diluted into tissue culture medium such that the amount of virus added to each well is the amount determined to give between 85 to 95% cell killing at 6-7 days post-infection.

NC(=O)c1ncn([C@@H]2O[C@H](CO)[C@@H](O)[C@H]2O)n1 [Ribavirin, ribavirin]
IC50: 30.7 µg/mL (≈ 126 µM)

Converted amounts (≈) assume the structure as drawn.
